The target of experiment [1] is T1, laminin peptide LAMA3_(2932–2951) (human) (UniProt Q16787).
T1 sequence (peptide): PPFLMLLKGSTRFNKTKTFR
Put plainly: ELISA; plates coated with laminin peptide (10 µg/mL by the legend, 1 μg/mL by the methods); 1 μg/mL His-tagged syndecan added; detected with anti-histidine tag antibody; BSA-coated wells as control; both purified. On the technique in general: An ELISA detects its analyte on a solid surface through an enzyme-linked reagent.

Amino acid sequences for entries named in this document (tags omitted). A change or cut given only in a name is not applied to a line headed by its entry. Residues count along the entry.
laminin peptide LAMA4_(1408–1434) (Q16363, residues 1408-1434): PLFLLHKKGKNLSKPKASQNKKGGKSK
laminin peptide LAMA4_(1521–1543) (Q16363, residues 1521-1543): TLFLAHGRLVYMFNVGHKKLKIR
UniProt P11047: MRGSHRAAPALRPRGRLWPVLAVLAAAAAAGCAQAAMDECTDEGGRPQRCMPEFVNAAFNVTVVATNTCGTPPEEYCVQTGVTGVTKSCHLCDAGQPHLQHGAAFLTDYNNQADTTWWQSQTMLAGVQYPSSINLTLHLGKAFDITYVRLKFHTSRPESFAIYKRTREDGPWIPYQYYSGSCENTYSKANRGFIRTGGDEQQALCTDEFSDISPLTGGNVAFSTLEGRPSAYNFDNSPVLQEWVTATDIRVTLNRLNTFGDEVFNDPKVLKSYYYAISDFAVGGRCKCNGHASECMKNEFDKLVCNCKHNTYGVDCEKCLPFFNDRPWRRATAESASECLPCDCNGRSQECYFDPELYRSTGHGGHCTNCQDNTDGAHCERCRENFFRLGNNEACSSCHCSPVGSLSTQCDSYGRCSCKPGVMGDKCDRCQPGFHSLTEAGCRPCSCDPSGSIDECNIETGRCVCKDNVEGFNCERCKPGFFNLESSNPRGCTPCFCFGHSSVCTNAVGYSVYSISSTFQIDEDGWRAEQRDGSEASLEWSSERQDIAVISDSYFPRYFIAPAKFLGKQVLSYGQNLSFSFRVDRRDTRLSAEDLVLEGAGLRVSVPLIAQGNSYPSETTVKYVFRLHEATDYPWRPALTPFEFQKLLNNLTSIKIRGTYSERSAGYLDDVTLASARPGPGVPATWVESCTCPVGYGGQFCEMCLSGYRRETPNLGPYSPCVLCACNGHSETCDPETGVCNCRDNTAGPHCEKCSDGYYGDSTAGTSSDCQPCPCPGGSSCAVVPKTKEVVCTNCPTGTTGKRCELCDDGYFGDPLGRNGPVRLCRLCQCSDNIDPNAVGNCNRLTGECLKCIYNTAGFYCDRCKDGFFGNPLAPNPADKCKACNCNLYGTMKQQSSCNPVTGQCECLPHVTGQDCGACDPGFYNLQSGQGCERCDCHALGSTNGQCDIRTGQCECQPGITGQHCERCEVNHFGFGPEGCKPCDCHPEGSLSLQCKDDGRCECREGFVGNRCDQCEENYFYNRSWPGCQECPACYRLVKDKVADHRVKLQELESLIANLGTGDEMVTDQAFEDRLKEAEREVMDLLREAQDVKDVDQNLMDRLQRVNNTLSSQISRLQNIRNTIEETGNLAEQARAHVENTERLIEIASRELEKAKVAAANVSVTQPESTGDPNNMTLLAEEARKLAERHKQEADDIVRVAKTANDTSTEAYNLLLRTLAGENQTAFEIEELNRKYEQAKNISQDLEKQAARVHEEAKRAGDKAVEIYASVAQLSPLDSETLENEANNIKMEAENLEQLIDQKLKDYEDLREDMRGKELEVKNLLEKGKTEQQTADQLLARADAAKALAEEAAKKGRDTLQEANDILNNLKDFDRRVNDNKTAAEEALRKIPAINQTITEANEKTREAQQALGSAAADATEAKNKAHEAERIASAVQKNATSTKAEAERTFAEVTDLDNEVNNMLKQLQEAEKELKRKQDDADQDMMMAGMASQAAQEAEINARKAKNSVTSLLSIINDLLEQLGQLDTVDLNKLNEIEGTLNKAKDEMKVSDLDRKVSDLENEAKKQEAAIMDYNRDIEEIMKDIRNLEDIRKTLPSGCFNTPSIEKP
UniProt P07942: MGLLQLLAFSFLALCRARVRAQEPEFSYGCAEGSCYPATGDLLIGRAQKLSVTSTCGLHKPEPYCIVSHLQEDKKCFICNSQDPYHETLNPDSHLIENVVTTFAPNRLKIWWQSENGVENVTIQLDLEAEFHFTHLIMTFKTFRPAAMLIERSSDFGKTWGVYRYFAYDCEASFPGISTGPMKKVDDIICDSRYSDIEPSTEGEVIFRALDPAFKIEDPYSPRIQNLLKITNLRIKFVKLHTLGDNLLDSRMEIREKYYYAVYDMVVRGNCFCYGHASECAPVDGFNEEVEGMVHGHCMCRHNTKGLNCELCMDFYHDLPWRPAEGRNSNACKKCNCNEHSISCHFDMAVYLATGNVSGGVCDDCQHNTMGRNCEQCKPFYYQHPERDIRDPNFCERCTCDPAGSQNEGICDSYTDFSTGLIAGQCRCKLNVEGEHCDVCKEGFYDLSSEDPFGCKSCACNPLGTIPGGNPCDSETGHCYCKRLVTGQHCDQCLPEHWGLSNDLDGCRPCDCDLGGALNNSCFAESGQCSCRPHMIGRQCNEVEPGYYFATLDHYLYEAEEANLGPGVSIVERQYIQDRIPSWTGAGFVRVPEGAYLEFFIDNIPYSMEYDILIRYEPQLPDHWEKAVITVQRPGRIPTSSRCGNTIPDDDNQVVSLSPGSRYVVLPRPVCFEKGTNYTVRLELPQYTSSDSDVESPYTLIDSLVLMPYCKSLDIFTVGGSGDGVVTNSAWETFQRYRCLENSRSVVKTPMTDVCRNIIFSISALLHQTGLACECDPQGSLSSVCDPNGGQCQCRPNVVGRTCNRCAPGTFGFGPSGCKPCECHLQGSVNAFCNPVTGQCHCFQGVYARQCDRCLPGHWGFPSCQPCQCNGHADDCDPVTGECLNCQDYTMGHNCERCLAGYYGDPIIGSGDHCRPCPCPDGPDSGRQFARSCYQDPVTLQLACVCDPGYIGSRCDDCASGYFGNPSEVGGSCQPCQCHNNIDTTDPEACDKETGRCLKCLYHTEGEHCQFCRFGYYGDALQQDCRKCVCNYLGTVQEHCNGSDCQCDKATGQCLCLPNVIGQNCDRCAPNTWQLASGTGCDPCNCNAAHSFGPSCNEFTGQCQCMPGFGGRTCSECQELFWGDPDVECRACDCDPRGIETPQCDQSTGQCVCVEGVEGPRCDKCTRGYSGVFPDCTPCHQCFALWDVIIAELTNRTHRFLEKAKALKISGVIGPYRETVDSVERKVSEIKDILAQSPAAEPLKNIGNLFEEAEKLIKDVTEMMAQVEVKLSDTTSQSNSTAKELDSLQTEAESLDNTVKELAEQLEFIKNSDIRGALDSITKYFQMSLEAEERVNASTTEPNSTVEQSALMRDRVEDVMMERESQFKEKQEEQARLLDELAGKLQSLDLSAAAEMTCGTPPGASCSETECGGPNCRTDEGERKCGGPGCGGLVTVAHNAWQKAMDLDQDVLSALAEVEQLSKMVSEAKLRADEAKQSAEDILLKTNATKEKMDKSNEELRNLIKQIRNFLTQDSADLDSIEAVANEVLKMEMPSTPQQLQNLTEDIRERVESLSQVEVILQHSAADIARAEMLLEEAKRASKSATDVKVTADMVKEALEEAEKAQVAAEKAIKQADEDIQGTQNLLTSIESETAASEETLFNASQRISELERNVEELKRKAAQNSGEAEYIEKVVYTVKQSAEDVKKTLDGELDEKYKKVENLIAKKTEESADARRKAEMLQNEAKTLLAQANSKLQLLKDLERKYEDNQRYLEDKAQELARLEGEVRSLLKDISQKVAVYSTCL
UniProt P24043: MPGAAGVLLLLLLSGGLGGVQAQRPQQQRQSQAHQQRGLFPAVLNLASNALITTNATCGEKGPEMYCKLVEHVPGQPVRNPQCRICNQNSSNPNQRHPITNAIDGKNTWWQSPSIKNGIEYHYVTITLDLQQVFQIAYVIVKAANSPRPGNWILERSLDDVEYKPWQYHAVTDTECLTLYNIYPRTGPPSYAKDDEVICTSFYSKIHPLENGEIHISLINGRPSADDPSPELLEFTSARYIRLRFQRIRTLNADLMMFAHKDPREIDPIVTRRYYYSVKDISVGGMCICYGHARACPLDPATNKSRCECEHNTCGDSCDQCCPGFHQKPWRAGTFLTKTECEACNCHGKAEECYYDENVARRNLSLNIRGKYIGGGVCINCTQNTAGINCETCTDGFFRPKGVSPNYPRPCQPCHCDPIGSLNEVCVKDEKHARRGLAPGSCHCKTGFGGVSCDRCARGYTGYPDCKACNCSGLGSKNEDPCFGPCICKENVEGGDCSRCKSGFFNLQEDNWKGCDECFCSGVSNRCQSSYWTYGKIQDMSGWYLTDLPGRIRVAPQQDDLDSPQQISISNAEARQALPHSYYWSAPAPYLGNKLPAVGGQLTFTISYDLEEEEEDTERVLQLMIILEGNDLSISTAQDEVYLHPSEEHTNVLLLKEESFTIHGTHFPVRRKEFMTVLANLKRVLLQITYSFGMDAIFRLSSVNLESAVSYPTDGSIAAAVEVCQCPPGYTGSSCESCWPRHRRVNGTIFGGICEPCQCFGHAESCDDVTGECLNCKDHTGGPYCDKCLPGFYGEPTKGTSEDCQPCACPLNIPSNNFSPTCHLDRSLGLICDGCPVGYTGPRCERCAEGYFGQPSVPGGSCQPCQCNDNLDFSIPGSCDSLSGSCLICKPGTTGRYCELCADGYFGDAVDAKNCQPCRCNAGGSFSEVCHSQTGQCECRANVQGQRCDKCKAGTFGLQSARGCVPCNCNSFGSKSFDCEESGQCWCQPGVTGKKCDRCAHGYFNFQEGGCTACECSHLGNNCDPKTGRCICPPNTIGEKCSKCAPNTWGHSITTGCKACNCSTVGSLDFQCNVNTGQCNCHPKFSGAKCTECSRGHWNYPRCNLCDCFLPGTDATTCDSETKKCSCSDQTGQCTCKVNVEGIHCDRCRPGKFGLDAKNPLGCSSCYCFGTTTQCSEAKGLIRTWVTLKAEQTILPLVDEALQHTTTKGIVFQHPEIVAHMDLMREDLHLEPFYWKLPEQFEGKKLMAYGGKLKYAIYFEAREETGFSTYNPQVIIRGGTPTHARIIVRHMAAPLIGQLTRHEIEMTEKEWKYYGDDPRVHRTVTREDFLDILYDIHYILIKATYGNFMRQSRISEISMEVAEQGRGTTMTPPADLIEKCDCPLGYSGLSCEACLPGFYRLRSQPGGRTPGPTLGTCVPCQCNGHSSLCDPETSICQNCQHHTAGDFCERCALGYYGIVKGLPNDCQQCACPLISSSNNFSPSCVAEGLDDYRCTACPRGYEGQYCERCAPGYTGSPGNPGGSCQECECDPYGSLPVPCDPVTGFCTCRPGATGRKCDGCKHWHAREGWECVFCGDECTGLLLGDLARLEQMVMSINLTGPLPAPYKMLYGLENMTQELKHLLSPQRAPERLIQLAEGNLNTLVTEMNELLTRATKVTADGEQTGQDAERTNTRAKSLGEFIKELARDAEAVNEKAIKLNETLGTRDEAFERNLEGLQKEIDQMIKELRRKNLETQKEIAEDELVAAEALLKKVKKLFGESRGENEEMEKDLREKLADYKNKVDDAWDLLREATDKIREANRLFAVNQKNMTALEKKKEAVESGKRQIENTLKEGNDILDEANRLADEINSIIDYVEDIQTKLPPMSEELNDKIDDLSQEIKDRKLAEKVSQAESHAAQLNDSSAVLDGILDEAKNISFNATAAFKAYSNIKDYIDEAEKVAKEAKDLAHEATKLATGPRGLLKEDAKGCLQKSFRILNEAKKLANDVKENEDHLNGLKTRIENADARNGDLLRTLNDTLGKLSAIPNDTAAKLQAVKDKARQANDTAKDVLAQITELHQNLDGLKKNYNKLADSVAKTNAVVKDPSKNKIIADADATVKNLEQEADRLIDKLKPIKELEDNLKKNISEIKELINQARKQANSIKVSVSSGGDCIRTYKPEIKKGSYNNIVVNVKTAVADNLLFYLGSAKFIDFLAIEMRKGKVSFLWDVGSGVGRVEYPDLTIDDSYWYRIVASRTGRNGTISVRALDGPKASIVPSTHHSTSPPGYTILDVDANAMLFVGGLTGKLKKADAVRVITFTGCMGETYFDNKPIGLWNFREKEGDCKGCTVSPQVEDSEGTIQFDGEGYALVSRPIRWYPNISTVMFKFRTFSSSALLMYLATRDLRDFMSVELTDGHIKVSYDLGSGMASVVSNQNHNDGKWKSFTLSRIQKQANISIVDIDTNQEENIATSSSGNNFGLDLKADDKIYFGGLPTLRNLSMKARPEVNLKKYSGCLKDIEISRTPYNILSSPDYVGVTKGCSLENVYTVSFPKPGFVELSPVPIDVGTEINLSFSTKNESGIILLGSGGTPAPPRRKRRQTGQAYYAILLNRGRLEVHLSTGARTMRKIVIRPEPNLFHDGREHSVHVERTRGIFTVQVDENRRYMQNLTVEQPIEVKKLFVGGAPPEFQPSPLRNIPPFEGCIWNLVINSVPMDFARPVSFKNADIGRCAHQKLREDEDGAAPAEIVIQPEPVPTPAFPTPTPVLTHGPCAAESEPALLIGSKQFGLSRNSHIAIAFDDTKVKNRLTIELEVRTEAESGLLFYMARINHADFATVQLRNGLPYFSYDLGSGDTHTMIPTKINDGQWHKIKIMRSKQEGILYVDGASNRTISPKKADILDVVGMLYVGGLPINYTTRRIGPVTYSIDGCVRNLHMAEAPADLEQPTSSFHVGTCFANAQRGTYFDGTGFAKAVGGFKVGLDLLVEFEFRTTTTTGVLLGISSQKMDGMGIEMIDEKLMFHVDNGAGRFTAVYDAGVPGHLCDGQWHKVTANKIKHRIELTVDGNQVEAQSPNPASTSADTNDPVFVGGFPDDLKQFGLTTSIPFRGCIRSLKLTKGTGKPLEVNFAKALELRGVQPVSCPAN

Experiment [2] deals with laminin peptide LAMA4_(1521–1543) (human) (UniProt Q16363). The description is as above.
The target of experiment [3] is T2, laminin peptide LAMA5_(3539–3550) (human) (UniProt O15230).
T2 sequence (peptide): TLPDVGLELEVR
Described as above.

Experiment [4] deals with T3, laminin peptide LAMA5_(3312–3325) (human) (UniProt O15230).
T3 sequence (peptide): ARKASRRSRQPARH
The experiment is described as above.

The target in experiment [5] is T4, laminin peptide LAMA3_(3031–3043) (human) (UniProt Q16787).
T4 sequence (peptide): KNSFMALYLSKGR
The description is as above.

Experiment [6] has as its target laminin peptide LAMA4_(1408–1434) (human) (UniProt Q16363). The description is as above.
Experiment [7] addresses T5, recombinant laminin LAMA3_(2928–3150) protein (human) (UniProt Q16787).
T5 sequence: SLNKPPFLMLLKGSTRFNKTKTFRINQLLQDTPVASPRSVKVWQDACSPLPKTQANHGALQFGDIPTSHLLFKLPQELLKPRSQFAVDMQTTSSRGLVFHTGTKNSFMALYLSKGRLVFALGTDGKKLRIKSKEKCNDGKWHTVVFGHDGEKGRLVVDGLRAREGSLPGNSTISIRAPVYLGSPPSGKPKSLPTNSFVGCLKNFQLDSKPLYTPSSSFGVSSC
The experiment in a line: ELISA; plates coated with 1 μg/mL recombinant laminin LG domain; 1 μg/mL GF added; bound GF detected with an antibody for each GF; BSA-coated wells as control; both purified.

The target in experiment [8] is T6, laminin alpha 5 LG domain recombinant protein LAMA5_(3026–3482) (human) (UniProt O15230).
T6 sequence: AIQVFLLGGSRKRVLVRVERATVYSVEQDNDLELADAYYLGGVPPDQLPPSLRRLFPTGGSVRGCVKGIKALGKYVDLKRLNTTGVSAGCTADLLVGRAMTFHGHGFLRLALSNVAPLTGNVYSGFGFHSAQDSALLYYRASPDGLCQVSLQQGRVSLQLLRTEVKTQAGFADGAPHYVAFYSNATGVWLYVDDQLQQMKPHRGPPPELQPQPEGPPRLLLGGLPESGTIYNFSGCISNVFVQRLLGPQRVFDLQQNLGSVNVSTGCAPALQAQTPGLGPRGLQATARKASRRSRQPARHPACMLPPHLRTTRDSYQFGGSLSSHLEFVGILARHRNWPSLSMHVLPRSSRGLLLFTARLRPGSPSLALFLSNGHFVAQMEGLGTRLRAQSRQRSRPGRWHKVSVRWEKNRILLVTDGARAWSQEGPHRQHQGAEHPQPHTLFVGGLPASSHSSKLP
The description is as above.

Experiment [9] has as its target T1, laminin peptide LAMA3_(2932–2951) (human). Put plainly: ELISA; plates coated with laminin peptide (10 µg/mL by the legend, 1 μg/mL by the methods); 1 μg/mL GF added; bound GF detected with an antibody for each GF; BSA-coated wells as control; both purified.
For experiment [10], the target named is laminin peptide LAMA4_(1521–1543) (human) (UniProt Q16363). The description is as above.
Experiment [11] concerns the target T7, laminin peptide LAMA3_(3043–3067) (human) (UniProt Q16787).
T7 sequence (peptide): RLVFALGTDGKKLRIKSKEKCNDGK
Described as above.

Experiment [12] deals with T2, laminin peptide LAMA5_(3539–3550) (human). Described as above.
In experiment [13] the target is T3, laminin peptide LAMA5_(3312–3325) (human). The description is as above.
In experiment [14] the target is T4, laminin peptide LAMA3_(3031–3043) (human). The experiment is described as above.
Experiment [15] concerns the target T8, laminin peptide LAMA5_(3300–3330) (human) (UniProt O15230).
T8 sequence (peptide): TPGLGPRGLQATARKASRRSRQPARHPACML
The description is as above.

In experiment [16] the target is T9, laminin peptide LAMA5_(3417–3436) (human) (UniProt O15230).
T9 sequence (peptide): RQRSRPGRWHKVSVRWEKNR
The experiment is described as above.

For experiment [17], the target named is laminin peptide LAMA4_(1408–1434) (human) (UniProt Q16363). The description is as above.
The target in experiment [18] is recombinant human laminin-421 (human) (UniProt Q16363+P55268+P11047). The experiment in a line: ELISA; plates coated with 10 μg/mL laminin isoform; 1 μg/mL GF for 60 min at RT in the absence or presence of 10 μM heparin; bound GF detected with an antibody for each GF; both purified.
Experiment [19] has as its target recombinant human laminin-411 (human) (UniProt Q16363+P07942+P11047). Described as above.
Experiment [20] has as its target laminin-221 (UniProt P24043). The description is as above.

Four molecules from publication PMC5986797, “Laminin heparin-binding peptides bind to several growth factors and enhance diabetic wound healing” (Nature Communications, 2018) can be followed below.

Results are given in words; binding and its absence hold for the method and conditions named. Some entries that bind do so weakly or less than the wild type.

B1: recombinant human syndecan-4 (receptor, UniProt P31431 19-145)
chain: ESIRETEVIDPQDLLEGRYFSGALPDDEDVVGPGQESDDFELSGSGDLDDLEDSMIGPEVVHPLVPLDNHIPERAGSGSQVPTEPKKLEENEVIPKRISPVEESEDVSNKVSMSSTVQGSNIFERTE
With B1, the binding entry in experiment [1] was “binds weakly”; in experiment [2] it was “binds”; in experiment [3], “no binding (tested: 1 μg/mL)”; in [4] it was “binds weakly”; in experiment [5] it was “binds weakly”; in [6] it was “binds”.

B2: PlGF-1 (ligand, UniProt P49763-2 19-149)
chain: LPAVPPQQWALSAGNGSSEVEVVPFQEVWGRSYCRALERLVDVVSEYPSEVEHMFSPSCVSLLRCTGCCGDENLHCVPVETANVTMQLLKIRSGDRPSYVELTFSQHVRCECRPLREKMKPERCGDAVPRR
As for B2, the binding entry in experiment [7], in [8], in experiment [9], in experiment [10], in experiment [11] and in [12] was “no binding (tested: 1 μg/mL)” each time. In addition, the binding result in experiment [13], in [14], in experiment [15], in [16] and in [17] was “no binding (tested: 1 μg/mL)” each time.

B3: recombinant human syndecan-1 (receptor, UniProt P18827 23-254)
chain: QIVATNLPPEDQDGSGDDSDNFSGSGAGALQDITLSQQTPSTWKDTQLLTAIPTSPEPTGLEATAASTSTLPAGEGPKEGEAVVLPEVEPGLTAREQEATPRPRETTQLPTTHLASTTTATTAQEPATSHPHRDMQPGHHETSTPAGPSQADLHTPHTEDGGPSATERAAEDGASSQLPAAEGSGEQDFTFETSGENTAVVAVEPDRRNQSPVDQGATGASQGLLDRKEVLG
As to B3, the binding entry in experiment [1] is on record as “binds weakly”; in experiment [2], “binds”; in experiment [3], “no binding (tested: 1 μg/mL)”; in experiment [4], “binds weakly”; in experiment [5] it was “binds weakly”; in experiment [6], “binds”.

B4: placental growth factor (PlGF)-2 (ligand, UniProt P49763-3 19-170)
chain: LPAVPPQQWALSAGNGSSEVEVVPFQEVWGRSYCRALERLVDVVSEYPSEVEHMFSPSCVSLLRCTGCCGDENLHCVPVETANVTMQLLKIRSGDRPSYVELTFSQHVRCECRPLREKMKPERRRPKGRGKRRREKQRPTDCHLCGDAVPRR
B4: the binding entry in [10] is on record as “binds”; in experiment [13] it was “no binding (tested: 1 μg/mL)”; in [17], “binds”; in experiment [18], “binds”; in experiment [19], “binds”; in experiment [20], “binds”.
